Test results as given in article PMC6919601, “Identification of Plasmodium dipeptidyl aminopeptidase allosteric inhibitors by high throughput screening” (PLoS ONE, 2019).
The campaign covered roughly 110,000 compounds. About 230 (0.21%) showed an effect of 50% or more. The list shows a part of the results.

target: DPAP1 (Plasmodium falciparum, UniProt Q8IIJ9); test: primary screen, percent inhibition; read by cleavage of a fluorogenic dipeptide substrate; higher = more effect of the substance; set-up: species or system P. falciparum D10 trophozoite lysates; single well
Sequence (Q8IIJ9 whole entry, looked up): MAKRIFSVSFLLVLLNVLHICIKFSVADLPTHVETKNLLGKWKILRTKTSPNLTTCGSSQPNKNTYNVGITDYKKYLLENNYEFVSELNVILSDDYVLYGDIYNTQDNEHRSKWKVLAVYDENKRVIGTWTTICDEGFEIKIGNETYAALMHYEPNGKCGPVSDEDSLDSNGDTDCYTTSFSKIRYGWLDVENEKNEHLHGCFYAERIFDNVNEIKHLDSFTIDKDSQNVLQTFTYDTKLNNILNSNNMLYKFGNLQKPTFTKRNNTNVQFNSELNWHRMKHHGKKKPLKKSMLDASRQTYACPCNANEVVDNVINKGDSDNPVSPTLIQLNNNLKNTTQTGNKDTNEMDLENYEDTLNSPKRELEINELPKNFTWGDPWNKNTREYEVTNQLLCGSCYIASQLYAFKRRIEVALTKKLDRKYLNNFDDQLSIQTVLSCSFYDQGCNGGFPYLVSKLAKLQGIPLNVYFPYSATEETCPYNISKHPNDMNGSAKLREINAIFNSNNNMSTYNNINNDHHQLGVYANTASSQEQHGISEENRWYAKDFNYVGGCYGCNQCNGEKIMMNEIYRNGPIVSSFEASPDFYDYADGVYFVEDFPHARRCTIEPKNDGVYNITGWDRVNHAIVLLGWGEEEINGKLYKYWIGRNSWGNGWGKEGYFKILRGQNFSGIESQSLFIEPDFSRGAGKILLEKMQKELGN
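Also: 30 min substrate incubation versus DMSO and 10 µM JCP410 controls.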

Point of comparison: Cn1cccc1Cc1nnc(SCC(=O)NCc2ccc(F)cc2)n1-c1ccccc1, “% Inhibition @ 10 uM” value 2.12%. Against it:
- COc1cccc(C2CC3=Nc4ccccc4N(C(C)=O)C(c4ccc(F)cc4)C3=C(O)C2)c1 (centres unmarked) — lower, -4.12%
- COc1cccc(C2CC(=O)N=C(NC(=O)c3ccc(Oc4ccccc4)cc3)N2)c1OC (centres unmarked) — lower, 1.66%
- CCOC(=O)C1=C(C)N=c2s/c(=C\c3ccc4c(c3)OCO4)c(=O)n2C1c1ccccc1F (centres unmarked) — higher, 3.62%
- CN(CC(=O)Nc1nnc(S)s1)S(=O)(=O)c1cccc2cccnc12 — higher, 28.4%
- CC(c1ccccc1)C1OCC(CN2CCCCC2)O1 (centres unmarked) — lower, -2.18%
- Cc1ccc(N(CC(=O)NCC2CCCO2)S(C)(=O)=O)cc1C (centres unmarked) — lower, -3.37%
- COc1ccc(S(=O)(=O)Cc2ccc(C(=O)NCCc3ccc(S(N)(=O)=O)cc3)o2)cc1 — lower, -6.52%
- CCOc1ccc(-c2nonc2NC(=O)C(CC)Oc2ccc(F)cc2)cc1OCC (centres unmarked) — lower, 1.9%
- Brc1ccc(CN2CCN(Cc3ccccc3)CC2)cc1 — lower, -0.0404%
- CC(=O)c1ccc(N2CCN(Cc3ccc(O)cc3)CC2)cc1 — lower, -1.41%
- CC1(C)CC(=O)C2=C(C1)N=C(S)C(C#N)C2c1ccccc1 (centres unmarked) — higher, 18%
- O=C(Nc1ccccc1)N1CCN(c2ccccc2)CC1 — lower, 1.33%
- CCn1cc(CCCC(=O)NC(C)c2ccc3c(c2)OCCO3)c2ccccc21 (centres unmarked) — higher, 11.7%
- CC1CC(c2csc(N)n2)CCO1 (centres unmarked) — lower, -0.274%
- O=C(O)CC(=O)N[C@@H](CC1CCCCC1)C(=O)N[C@@H](CCc1ccccc1)C(=O)c1nc2ccccc2o1 — lower, -0.214%
- Fc1ccc(COc2cccc(CNCCSc3nnnn3-c3ccccc3)c2)cc1 — lower, 0.596%
- CC1=NC2=C(C(=O)CCC2)C(c2ccc(Cl)cc2)/C1=C(/O)OC(C)C (centres unmarked) — higher, 6.12%
- O=C(NCc1ccc(Cl)c(Cl)c1)c1ccncc1 — lower, -3.24%
- N#Cc1c2c(c(NCCCO)n3c1nc1ccccc13)CCC2 — higher, 22.6%
- CCN1CCN(C(=O)C2c3ccccc3C(=O)N(CC(C)C)C2c2cccs2)CC1 (centres unmarked) — lower, -5.92%
- CC(=O)c1cc(-c2ccc(F)cc2)n(CCC(=O)NCc2cccnc2)c1 — lower, -0.176%
- CCO/C(O)=C1/C(C)=NC(=S)NC1C1CC=CCC1 (centres unmarked) — lower, -6.83%
- CCN1CCN(C(=O)C(NS(=O)(=O)c2ccc3nc(C)sc3c2)C(C)C)CC1 (centres unmarked) — lower, -5.25%
- Oc1ccccc1C1=NC(c2ccc(Br)cc2)NC(c2cccnc2)C1 (centres unmarked) — lower, -4.58%
- CC(C)C[C@@H](C(=O)NCC#N)c1cccc(-c2ccc(N3CCN(CC(F)(F)F)CC3)cc2)c1 — lower, 1.7%
- CCS(=O)(=O)C1=NN2C(=N)/C(=C\c3cc(C)n(-c4ccccc4C)c3C)C(=O)N=C2S1 — lower, -1.54%
- Cc1ccc(-n2nc(C)c3c2OC(N)=C(C#N)C3c2ccncc2)cc1 (centres unmarked) — lower, 0.317%
- O=C(Nc1ccc(-c2ccccc2)cc1)c1ccccc1NC(=O)C(F)(F)F — lower, 1.96%
- Cc1cc(O)c2c(C)c(CC(=O)NCc3ccco3)c(=O)oc2c1 — lower, -0.808%
- Cc1ccccc1C1CC(c2ccccc2OC(F)F)Nc2ncnn21 (centres unmarked) — lower, -1.48%
- COC(=O)C1=CN(Cc2ccc(OC)cc2)C=C(C(=O)OC)C1c1cc(OC)c(OC)c(OC)c1 — higher, 2.26%
- CC1CCCCN1C(=O)Cn1cc(C#N)c2ccccc21 (centres unmarked) — lower, -1.07%
- COc1cc(NC(=O)Cn2cnc3c(=O)n(C)c(=O)n(C)c32)cc(OC)c1 — lower, -5.35%
- Cc1onc(-c2c(F)cccc2Cl)c1C(=O)NCC1COc2ccccc2O1 (centres unmarked) — lower, -3.83%
- c1ccc(C2=NN(c3nc(-c4ccc(-c5ccccc5)cc4)cs3)C(c3ccccc3)C2)cc1 (centres unmarked) — lower, -0.771%
- COc1cc(Nc2nc(-c3ccccc3)cs2)c(OC)cc1Cl — higher, 5.16%
- O=C(Nc1ccc(S(=O)(=O)N2CCCC2)cc1)c1ccccc1Cl — higher, 3.53%
- CC1CCCCC1NC(=O)C(Cc1ccccc1)NS(=O)(=O)c1cccc2nsnc12 (centres unmarked) — lower, -5.1%
- COc1ccc(-c2cc(C(F)(F)F)n3ncc(C(=O)N4CCN5CCCC5C4)c3n2)cc1OC (centres unmarked) — lower, -12.4%
- COc1cc(OC)cc(C(=O)Nc2ccc(S(=O)(=O)Nc3cnc4ccccc4n3)cc2)c1 — higher, 4.11%
- COc1ccccc1Oc1nc2c(C)cccn2c(=O)c1/C=C(\C#N)S(=O)(=O)c1ccccc1 — lower, -1.43%
- CCS(=O)(=O)N1CCN(Cc2cc(OC)c(O)c(OC)c2)CC1 — lower, -5.28%
- O=C(COc1ccc(-c2cnc3ccccc3n2)cc1)c1cccs1 — lower, -5.92%
- Cc1ccc(OCCCn2c(=O)oc3ccccc32)cc1 — lower, -6.51%
- COc1ccc(-c2cc(C)no2)cc1S(=O)(=O)NCCN1CCCCCC1 — higher, 2.69%
- Cc1ccc(C(=O)/C=C(\O)C(=O)O)cc1 — lower, 1.42%
- Cc1cccc(C)c1NC(=O)C1CCN(S(=O)(=O)c2ccccc2)CC1 — lower, -3.09%
- CCCOc1ccccc1C1C2=C(CC(C)(C)CC2=O)N(CCC(=O)O)C2=C1C(=O)CC(C)(C)C2 — lower, 0.0504%
- COC(=O)C1=CN(Cc2ccc(Cl)cc2)C=C(C(=O)OC)C1c1ccsc1 — lower, 1.86%
- CCOC(=O)N1CCN(C(=O)Cn2ncc3c4ccccc4n(Cc4ccccc4)c3c2=O)CC1 — higher, 4.95%
- Cc1cc(N)n2ncc(-c3ccccc3)c2n1 — lower, -0.169%
- CCCCCCNc1nc(NCc2ccco2)nc(OCC)n1 — lower, 0.884%
- COc1ccc(C2SCCN2S(=O)(=O)c2cc(OC)c(C)cc2C)cc1 (centres unmarked) — higher, 15.9%
- Cc1cc(NC(=O)c2ccc(NC(=O)C3CC3)cc2)no1 — lower, 1.19%
- COc1ccc(Cn2c(CCC(=O)NCc3ccco3)nc3cccnc32)cc1 — lower, -8.68%
- COc1ccccc1N1CCN(C(=O)c2ccc(Cl)c([N+](=O)[O-])c2)CC1 — lower, 1.96%
- Cc1ccc(CCNC(=O)Cn2nc(Cc3ccncc3)c3ccccc3c2=O)cc1 — lower, -2.92%
- O=C(NCc1ccco1)c1ccc(CN2C(=O)CCn3nccc32)cc1 — lower, -11.1%
- Cn1c(=O)c2sccc2n2c(CCCC(=O)NCC3CCCO3)nnc12 (centres unmarked) — lower, -5.05%
- CSC1(c2ccc(C)cc2)CC(C)=C(C)CS1=O (centres unmarked) — lower, -0.988%
- COCCCNC(=O)C1CCCN(c2nnc(C)c3c(C)n(-c4ccc(OC)cc4)nc23)C1 (centres unmarked) — higher, 3.25%
- COc1cc(OC)cc(C(=O)Nc2ccc(S(=O)(=O)Nc3nc(C)cc(C)n3)cc2)c1 — higher, 10.4%
- C#CCOc1ccc(/C=C2\SC(=O)N(CC)C2=O)cc1OC — lower, -4.65%
- CCn1cc(C(=O)Nc2ccc(C(=O)O)cc2)cn1 — lower, -6.68%
- COc1ccc([N+](=O)[O-])c2c(CCN3C(=O)c4ccccc4C3=O)c[nH]c12 — lower, -1.76%
- COc1ccc(Nc2cc(C)nc(-c3ccccc3O)n2)cc1 — higher, 3.48%
- COC(=O)C1=CN(C(C)C)C=C(C(=O)OC)C1c1ccc(C)s1 — lower, 1.86%
- COc1ccc2c(c1)C(N1CCN(CCO)CC1)Cc1ccccc1S2 (centres unmarked) — lower, 0.59%
- O=C(O)C1CCC(c2ccc(-c3ccccc3)cc2)CC1 (centres unmarked) — lower, 0.98%
- CCCN(CCO)Cc1ccc([N+](=O)[O-])cc1 — lower, 1.62%
- COc1ccc(OC)c(NC(=O)CN(c2ccc(Cl)cc2)S(=O)(=O)c2ccccc2)c1 — lower, -10.2%
- COc1cccc(C2C(C#N)=C(N)Oc3nc(O)nc(O)c32)c1 (centres unmarked) — higher, 3.05%
- CC(C)(C)c1cc(O)c2oc(=O)c(-c3nc4cc(C(=O)O)ccc4[nH]3)cc2c1 — higher, 4.93%
- CC1(C)CC2=Nc3ccccc3N(C(=O)Cc3ccccc3)C(c3ccccc3Cl)C2=C(O)C1 (centres unmarked) — lower, -1.66%
- Cc1ccc(C(=O)O)c2c1N[C@@H](c1ccccc1)[C@H]1CC=C[C@@H]21 — lower, -5.82%
- COc1ccc(-c2nn(C)c(=O)c3ccccc23)cc1CNS(C)(=O)=O — lower, -6.94%
- Cc1nnc(SCCCn2c(N3CCCCC3)nc3c2c(=O)[nH]c(=O)n3C)s1 — lower, -0.946%
- CCn1c2ccccc2c2cc(CN3CCN(c4ccccc4Cl)CC3)ccc21 — higher, 2.23%
- Cc1cc(S(=O)(=O)N2CCCC(C(=O)O)C2)ccc1Cl (centres unmarked) — higher, 5.2%
- CCOC(=O)N1CCC(NC(=O)c2ccc(CS(=O)(=O)c3ccc(OC)cc3)o2)CC1 — lower, 0.458%
- C[n+]1cc2ccccc2c2ccccc21 — higher, 2.68%
- N#CC1=C(N)OC2=C(C(=O)CC(c3ccccc3)C2)C1c1ccccc1Br (centres unmarked) — lower, -0.99%
- N#CCNC(=O)C(CCSc1ccncc1)NC(=O)c1ccccc1 (centres unmarked) — lower, -3.49%
- O=C(O)c1ccccc1C(=O)Nc1cccc2ccccc12 — lower, -4.66%
- CCOC(=O)c1cnc2nncn2c1N — lower, 0.00706%
- COc1cccc(NC(=O)CN(c2ccc(F)cc2)S(=O)(=O)c2ccc(C)cc2)c1 — lower, -5.88%
- Cc1ccc2nc(-c3ccccc3)c(CC(=O)O)c(C(=O)O)c2c1 — lower, 1.94%
- CCN(CC(O)CN)CC(O)COc1ccc(C(C)(C)C)cc1 (centres unmarked) — lower, -7.35%
- CCc1c(-c2ccccc2)nc2ccccc2c1C(=O)N1CCCC1 — lower, -0.733%
- COC(=O)c1c(NC(=O)COc2ccc(C(C)C)cc2)sc2c1CCC(C)C2 (centres unmarked) — higher, 7.63%
- Cn1c(=O)cc2c3c(c(Oc4ccccc4)ccc31)C(=O)c1ccccc1-2 — higher, 4.07%
- CCOC(=O)NC(c1c(N)n(C)c(=O)n(C)c1=O)(C(F)(F)F)C(F)(F)F — lower, 1.72%
- CCCO/C(O)=C1\C(C)=NC2=C(C(=O)CC(c3cccs3)C2)C1c1cccc(OC)c1OC (centres unmarked) — higher, 6.97%
- Cc1ccc(CNC(=O)C(=O)NCC(c2cccnc2)N2CCOCC2)cc1 (centres unmarked) — lower, -3.51%
